Measurements taken from publication PMC11995724, “Antibiotic target discovery by integrated phenotypic and activity-based profiling of electrophilic fragments” (Cell chemical biology, 2025).
Among all 3,200 compounds or so, about 110 (3.4%) showed an effect of 50% or more. The list shows a part of the results.

test system: T1, V. cholerae SAD30; design: species or system S. aureus MSSA476 (TSB) or V. cholerae SAD30 (LB); 384-well bacterial growth screen at 25 uM, OD600 relative to DMSO control; settings: relative growth, OD600, LB; 25 µM; inhibitor
T1 construct: SAD30

Row | SMILES | % of control remaining [%]
1 | C=CC(=O)N(Cc1nonc1C)CC1C(C)=CCCC1C (centres unmarked) [1-F15, N-[(2,6-dimethylcyclohex-2-en-1-yl)methyl]-N-[(4-methyl-1,2,5-oxadiazol-3-yl)methyl]prop-2-enamide] | 66.9656
2 | C=CC(=O)N1CCC(C(=O)NCc2cccc(Cl)c2F)CC1 [3-N12, N-[(3-chloro-2-fluorophenyl)methyl]-1-(prop-2-enoyl)piperidine-4-carboxamide] | 95.7949
3 | COc1cc(Cl)c(C)cc1NC(=O)C(C)Cl (centres unmarked) [6-C15, 2-chloro-N-(4-chloro-2-methoxy-5-methylphenyl)propanamide] | 86.6054
4 | CC(Cl)C(=O)NC(C)c1cnn(CC2CCC2)c1 (centres unmarked) [5-L15, 2-chloro-N-{1-[1-(cyclobutylmethyl)-1H-pyrazol-4-yl]ethyl}propanamide] | 98.0141
5 | C=CC(=O)NCC1=NOCC1 [3-G16, N-[(4,5-dihydro-1,2-oxazol-3-yl)methyl]prop-2-enamide] | 88.3845
6 | CN(C)S(=O)(=O)c1cccc(NC(=O)CCl)c1 [4-J08, 2-chloro-N-[3-(dimethylsulfamoyl)phenyl]acetamide] | 94.3714
7 | C=CC(=O)N(C)Cc1conc1CC [2-O15, N-[(3-ethyl-1,2-oxazol-4-yl)methyl]-N-methylprop-2-enamide] | 88.9607
8 | CC(NC(=O)CCl)c1nnc(-c2cccc(F)c2)s1 (centres unmarked) [5-F13, 2-chloro-N-{1-[5-(3-fluorophenyl)-1,3,4-thiadiazol-2-yl]ethyl}acetamide] | 96.501
9 | Cc1cc(C)c(C(=O)CCl)c(C)c1 [10-C08, 2-chloro-1-(2,4,6-trimethylphenyl)ethan-1-one] | 98.9675
10 | CC(C)(C)c1ccc(C=C(C#N)C(=O)NCc2ccco2)cc1 [8-L14, 3-(4-tert-butylphenyl)-2-cyano-N-[(furan-2-yl)methyl]prop-2-enamide] | 61.5228
11 | O=C(CCl)NCc1ccc(NC(=O)C2CC2)cc1 [6-E20, N-{4-[(2-chloroacetamido)methyl]phenyl}cyclopropanecarboxamide] | 93.1273
12 | O=C(CCl)Nc1cc(Cl)ccc1Oc1ccccc1 [5-G19, 2-chloro-N-(5-chloro-2-phenoxyphenyl)acetamide] | 86.75
13 | CCOc1ccccc1NC(=O)C(C#N)=Cc1ccc2c(c1)OCO2 [9-P05, 3-(1,3-dioxaindan-5-yl)-2-cyano-N-(2-ethoxyphenyl)prop-2-enamide] | 97.6886
14 | C=CC(=O)NCCn1cnc2ccsc2c1=O [2-N15, N-(2-{4-oxo-3H,4H-thieno[3,2-d]pyrimidin-3-yl}ethyl)prop-2-enamide] | 91.5854
15 | Cc1ccccc1NC(=O)C(C#N)=Cc1ccc(N2CCCCC2)cc1 [9-E21, 2-cyano-N-(2-methylphenyl)-3-[4-(piperidin-1-yl)phenyl]prop-2-enamide] | 90.7546
16 | CCOc1ccccc1NC(=O)C(C#N)=Cc1c(C)[nH]c2ccccc12 [9-A06, 2-cyano-N-(2-ethoxyphenyl)-3-(2-methyl-1H-indol-3-yl)prop-2-enamide] | 88.7152
17 | CC(Cl)C(=O)N1CCCC1CC(=O)c1cnn(C)c1 (centres unmarked) [6-D16, 2-chloro-1-{2-[2-(1-methyl-1H-pyrazol-4-yl)-2-oxoethyl]pyrrolidin-1-yl}propan-1-one] | 85.2403
18 | O=C(CCl)NC1CCS(=O)(=O)CC1 [6-M08, 2-chloro-N-(1,1-dioxo-1lambda6-thian-4-yl)acetamide] | 93.279
19 | COc1ccc(N(C(=O)CCl)C2CCS(=O)(=O)C2)cc1 (centres unmarked) [5-I20, 2-chloro-N-(1,1-dioxo-1lambda6-thiolan-3-yl)-N-(4-methoxyphenyl)acetamide] | 103.898
20 | CCc1ccc(C(=O)CCl)cc1 [10-F18, 2-chloro-1-(4-ethylphenyl)ethan-1-one] | 26.1835
21 | C=CC(=O)N1CCC(C(=O)NC2CC2(C)C)CC1 (centres unmarked) [3-C07, N-(2,2-dimethylcyclopropyl)-1-(prop-2-enoyl)piperidine-4-carboxamide] | 110.086
22 | CCCC(=O)Nc1ccc(C(=O)C(C)Cl)cc1 (centres unmarked) [10-O06, N-[4-(2-chloropropanoyl)phenyl]butanamide] | 98.8116
23 | CC(Cl)C(=O)N(Cc1ccccc1)C1C=CS(=O)(=O)C1 (centres unmarked) [6-D22, N-benzyl-2-chloro-N-(1,1-dioxo-2,3-dihydro-1lambda6-thiophen-3-yl)propanamide] | 97.2225
24 | O=C(CCl)Nc1cccc(OCc2ccccc2)c1 [5-I04, N-[3-(benzyloxy)phenyl]-2-chloroacetamide] | 87.4225

Row | SMILES | % of control remaining [%]
25 | N#CC(=Cc1cnn(Cc2ccccc2)c1)C(=O)NC1CCCC1 [9-O14, 3-(1-benzyl-1H-pyrazol-4-yl)-2-cyano-N-cyclopentylprop-2-enamide] | 76.8865
26 | C=CC(=O)NC(C)Cn1nc(C)cc1C (centres unmarked) [1-F10, N-[1-(3,5-dimethyl-1H-pyrazol-1-yl)propan-2-yl]prop-2-enamide] | 64.7694
27 | C=CC(NC(=O)CCl)C1CCOCC1 (centres unmarked) [5-N13, 2-chloro-N-[1-(oxan-4-yl)prop-2-en-1-yl]acetamide] | 98.8547
28 | COc1cc(C=C(C#N)C(=O)Nc2cccc(Cl)c2)cc(O)c1O [9-G20, N-(3-chlorophenyl)-2-cyano-3-(3,4-dihydroxy-5-methoxyphenyl)prop-2-enamide] | 61.1149
29 | Cc1ccc(NC(=O)C(C#N)=CC2=Cc3ccccc3OC2)cc1 [9-B19, 3-(2H-chromen-3-yl)-2-cyano-N-(4-methylphenyl)prop-2-enamide] | 85.588
30 | C=CC(=O)NCC(=O)c1scc(C)c1Cl [1-D16, N-[2-(3-chloro-4-methylthiophen-2-yl)-2-oxoethyl]prop-2-enamide] | 44.1609
31 | C=CC(=O)Nc1ccccc1Sc1nncs1 [1-G04, N-[2-(1,3,4-thiadiazol-2-ylsulfanyl)phenyl]prop-2-enamide] | 100.149
32 | C=CC(=O)N1CCC[C@H]1c1ccon1 [2-G03, 1-[(2S)-2-(1,2-oxazol-3-yl)pyrrolidin-1-yl]prop-2-en-1-one] | 108.26
33 | C=CCNC(=O)C(C#N)=Cc1ccccc1[N+](=O)[O-] [8-E09, 2-cyano-3-(2-nitrophenyl)-N-(prop-2-en-1-yl)prop-2-enamide] | 71.584
34 | O=C(CCl)NCc1ccnn1C1CCCC1 [7-H08, 2-chloro-N-[(1-cyclopentyl-1H-pyrazol-5-yl)methyl]acetamide] | 83.7932
35 | CCN(Cc1ccc(Cl)s1)C(=O)CCl [6-M11, 2-chloro-N-[(5-chlorothiophen-2-yl)methyl]-N-ethylacetamide] | 83.1169
36 | CC(CO)N(Cc1ccccc1Cl)C(=O)CCl (centres unmarked) [6-D17, 2-chloro-N-[(2-chlorophenyl)methyl]-N-(1-hydroxypropan-2-yl)acetamide] | 94.0373
37 | CC(Cl)C(=O)NC(C)c1ccn(C)n1 (centres unmarked) [6-B16, 2-chloro-N-[1-(1-methyl-1H-pyrazol-3-yl)ethyl]propanamide] | 86.4537
38 | CC(=O)NCCc1ccc(C(=O)CCl)s1 [10-P03, N-{2-[5-(2-chloroacetyl)thiophen-2-yl]ethyl}acetamide] | 110.812
39 | COc1ccc(C(=O)CCl)c2c1C(=O)CO2 [10-N05, 7-(2-chloroacetyl)-4-methoxy-2,3-dihydro-1-benzofuran-3-one] | 105.981
40 | O=C(CCl)NCC1CCCCC1 [5-J06, 2-chloro-N-(cyclohexylmethyl)acetamide] | 96.501
41 | CS(=O)(=O)Nc1ccc(C(=O)CCl)cc1 [10-D19, N-[4-(2-chloroacetyl)phenyl]methanesulfonamide] | 31.3267
42 | C=CCNC(=O)C(C#N)=Cc1cccc(C)c1 [8-D05, 2-cyano-3-(3-methylphenyl)-N-(prop-2-en-1-yl)prop-2-enamide] | 83.1407
43 | O=C(CCl)NC1CCCN(Cc2ccccc2)C1=O (centres unmarked) [7-J10, N-(1-benzyl-2-oxopiperidin-3-yl)-2-chloroacetamide] | 79.9604
44 | C=CC(=O)N1CCC(C(=O)N[C@H]2CC[C@@H](S(C)(=O)=O)CC2)CC1 [2-J08, 1-(prop-2-enoyl)-N-[(1s,4s)-4-methanesulfonylcyclohexyl]piperidine-4-carboxamide] | 87.5712
45 | C=CC(=O)NC1CCOC(c2cnn(C)c2)C1 (centres unmarked) [2-F07, N-[2-(1-methyl-1H-pyrazol-4-yl)oxan-4-yl]prop-2-enamide] | 94.3646
46 | C=CC(=O)N1CCCC(Oc2ccnc(C(=O)NC)c2)C1 (centres unmarked) [2-L22, N-methyl-4-{[1-(prop-2-enoyl)piperidin-3-yl]oxy}pyridine-2-carboxamide] | 101.004
47 | CC(C1CC1)N(C(=O)CCl)C1CC1 (centres unmarked) [5-F12, 2-chloro-N-cyclopropyl-N-(1-cyclopropylethyl)acetamide] | 92.298
